Test results reported in the supplement of paper PMC12355420.
This is one part of the list. Single values are uncertain, as repeats are few or missing.

The molecules below were run on HeLa VPS33A reporter cells (assay: relative cell viability (CellMask signal) vs DMSO (fraction of DMSO); HeLa model of a glycosaminoglycan (GAG) storage disease; KI is knock-in and KO knock-out; SDC1 is syndecan 1; higher = less cytotoxic). Settings: 50 µM; 24 h.
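Further: primary screen of an FDA-approved drug library in HeLa reporter cells in 96-well format, CellMask signal normalized to DMSO-treated wells set as 1, under 0.5 deemed highly cytotoxic.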

Row | SMILES | relative cell viability
1 | Cn1ncc(Cl)c1-c1cc(C(=O)N[C@H](CN)Cc2cccc(F)c2)sc1Cl [Afuresertib] | 0.00421
2 | CC(C)COc1ccc(CNC(=O)N(Cc2ccc(F)cc2)C2CCN(C)CC2)cc1 [Pimavanserin] | 0.00382
3 | CCOC(=O)C1=C(COCCN)NC(C)=C(C(=O)OC)C1c1ccccc1Cl (stereo unspecified) [Amlodipine] | 0.00488
4 | C/C=C1\NC(=O)[C@H]2CSSCC/C=C/[C@H](CC(=O)N[C@H](C(C)C)C(=O)N2)OC(=O)[C@H](C(C)C)NC1=O [Romidepsin (FK228, depsipeptide)] | 0.00881
5 | CCc1cc2c(cc1CC)CC(NC[C@H](O)c1ccc(O)c3[nH]c(=O)ccc13)C2 [Indacaterol] | 0.00371
6 | Cc1coc2c1C(=O)C(=O)c1c-2ccc2c1CCCC2(C)C [Tanshinone IIA] | 0.441
7 | CCOc1cc2ncc(C#N)c(Nc3ccc(F)c(Cl)c3)c2cc1NC(=O)/C=C/CN(C)C [Pelitinib (EKB-569)] | 0.00402
8 | COc1ccc2c(O[C@@H]3C[C@H]4C(=O)N[C@]5(C(=O)NS(=O)(=O)C6CC6)C[C@H]5/C=C\CCCCN(C)C(=O)[C@@H]4C3)cc(-c3nc(C(C)C)cs3)nc2c1C [Simeprevir] | 0.00339
9 | CCCN(CCC)C(=O)C1=Cc2ccc(-c3ccc(C(=O)N4CCCC4)cc3)cc2N=C(N)C1 [Motolimod (VTX-2337)] | 0.00973
10 | COc1cc(NC(C)CCCN)c2ncccc2c1 (stereo unspecified) [Primaquine Diphosphate] | 0.00577
11 | C=C1/C(=C\C=C2/CCC[C@]3(C)[C@@H]([C@H](C)/C=C/[C@H](C)C(C)C)CC[C@@H]23)C[C@@H](O)C[C@@H]1O [Doxercalciferol] | 0.00381
